Reference: the supplement of paper PMC3334620
The full ranking holds about 33,000 sequences; the median of “E-score (-0.5 to 0.5)” is about -0.01, and the highest 2% start at about 0.26. Some of the results follow.

These sequences were tested against Ste12 (UniProt P13574) (assay: PBM E-score (8-mer binding enrichment) (E-score (-0.5 to 0.5)); higher = stronger / more preferred TF binding; most listed sequences are background and not binding sites). Conditions: protein concentration: 200 nM; construct: GST-DNA-binding domain.
Summary of the method: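 Detection of bound protein used fluorescent anti-GST, with scans normalised by masliner. The proteins were GST-tagged yeast transcription factors applied at about 100-200 nM to universal all-10-mer Agilent arrays made double-stranded by primer extension. Each ungapped eight-base word, pooled with its reverse complement, was scored with an E-score from the Universal PBM Analysis Suite.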

Sequence	PBM E-score
AGACTAAG	-0.0373
ATTGAATC	0.0395
AGAGAAGG	-0.185
CGCAGCTC	-0.0841
ATGGGCGA	-0.00581
ACTATGAA	0.125
AGACAAGG	-0.0552
GTCCGCAA	-0.0225
ATGGCAGG	-0.00832
GGAGTCAC	-0.178
GCCTTTCA	-0.125
TCGTGGCA	-0.0508
GCGCTTAA	0.136
CGACTTCC	-0.201
CGGCAGCA	-0.0682
CGCTAGAA	0.0317
ATGGCGGG	0.0897
GCGTCTAA	0.126
AAATACTC	0.0776
AGGTCGCG	-0.228
CGAGAGGC	-0.168
ACCTACCA	-0.0382
AATCAGCG	0.121
AACGCCGT	-0.106
ACACTGGA	-0.112

Sequence	PBM E-score
GCTGTATA	-0.188
CGACCTGA	0.0607
GATCCCAA	-0.0221
AAATTCTC	0.105
GCATGGGA	0.0202
AAATACCT	0.116
CCTATTGC	-0.0564
AACGTCTA	-0.189
CCATAACG	0.147
GGAAAATA	0.255
GAGCCTGA	-0.0885
AAGGAGGA	-0.177
GAAGGTTA	-0.115
GCCACTGA	-0.0291
CCCTTGAG	-0.0308
ATAACTTC	0.172
ACCCTCGG	-0.0619
CATACTGA	-0.124
CATTTGTC	0.185
GTAGAGGA	-0.305
GCCAGAGA	-0.0798
CATGAGGG	-0.0555
ACTAACTG	0.108
GACATACA	0.192
AGCTAACG	-0.163

Sequence	PBM E-score
AGTGATAA	0.0362
AAGATTCG	0.128
GCTTAAGA	0.0148
AAAGCAAG	0.254
CAAGGAAC	0.13
AGGCCAAA	-0.0294
CTGTCGAA	-0.08
CAATGCTA	-0.0691
CGTTTGCA	0.0337
CCGCTCGC	0.207
ATATAAGA	0.12
ACCCGTTA	0.0925
AAATAAGA	0.236
GCAGGACA	-0.11
CCTCGCTA	-0.253
CTGTTACA	0.378
TCAGCCGA	-0.0569
ACCCATAG	-0.126
AAGACCTC	-0.138
CTCAAGGA	-0.181
AAGCGCTG	-0.00277
CATAGAAC	-0.0408
AGATAACA	0.223
GTGCTCTA	-0.238
CAGCTAGA	-0.154

Sequence	PBM E-score
AACGTTTG	0.0498
GAAGATCC	-0.217
CCCGCGAA	0.171
ATCGTAAG	0.0728
ACTGCCGC	0.147
AGTAAAAC	0.168
CGTGCATC	0.0466
AACAAATG	0.176
CCTTTTAC	0.178
ACTTAGAT	-0.0771
GGACATAC	-0.145
CTTCCAAA	0.0685
CGGAGCTC	-0.149
CCCATGAA	0.0211
ATGCAGAC	-0.137
TCAGGCAA	0.0795
CCCTCTAG	-0.228
CACAATGA	0.122
CAAAATTG	0.0598
ATGTAGAG	-0.0714
ATCCATCG	-0.185
GATAACGA	-0.00637
GACTCGCA	-0.153
AAGTCTGG	-0.077
ATCATATG	-0.0776

Sequence	PBM E-score
CAGCAGCA	0.103
AGTCTGCA	-0.122
CCATCTTA	0.127
CACAGTAG	-0.043
CGAGGGAG	-0.0694
ACTAGTTG	-0.0385
GTACAGAC	-0.237
AATCGGTC	0.128
CTCAAACC	0.0438
AATGGCGG	0.0559
ATGCTGCG	-0.125
CCCTCTGC	-0.356
CCGATACA	0.174
CCATAGCA	-0.0413
ATAAAACA	0.368
ACCTCGTA	-0.0905
CGCCACAC	0.0927
CGGATGAA	0.268
CTTTAAAC	0.0682
GCTCTTCA	-0.0243
CATACTCA	0.0427
TAGGGGCA	-0.132
GACTGCGC	-0.123
AACCCGGC	-0.00525
AGTCGGGA	-0.0346

Sequence	PBM E-score
TCGAGCAA	0.0267
AGGACATG	-0.0929
CGACGAGC	-0.192
ACTGGGGC	-0.12
CCTTAAGC	-0.0937
TCGGAGAA	0.00947
GATAACCA	0.108
CGGTCTAC	-0.145
AACAATCG	-0.0669
CGTTAGTA	0.052
GGCTGACC	-0.162
ATAGGCGA	0.0142
CAATCCTA	-0.00222
AGTCGGGG	0.0136
AGACCTAG	-0.0522
AACTAGTG	0.0672
CGTCCGAG	-0.0853
ACGCGGGG	0.177
CACTGCTA	-0.149
CCCCTAGC	-0.0779
GGCACGCA	-0.121
ACAGTAAC	0.151
ATAGTGCG	0.0362
AACACGGA	0.0829
CATCTACC	0.131

Sequence	PBM E-score
AAGGGCGC	0.034
CCGGCCAC	-0.188
AGGTATGC	-0.123
ACTAAGTA	-0.0288
CAGCGTTA	-0.0599
TAAATAAA	0.228
GACAGGTC	-0.303
GCAGGCGA	-0.165
CGGACTTA	-0.156
AGAACTTC	-0.154
AACTATGG	-0.0761
GCTAGGCC	-0.168
AGTATTAT	-0.0081
TAATGTCA	0.11
GAAGATAC	0.172
CCCACCCA	0.269
AACTAGGA	0.049
CTATTTGA	0.141
AGGACAGG	-0.148
AAAGGTTG	-0.111
CCTGACGC	-0.186
CAAAAATG	0.182
